Self-cleavage data for 167 variants are collected here from the RNAGym collection of RNA variant scans (doi:10.7554/elife.90254).

B1: LINE1-mini (parent)
chain: GGCAGAGCUCAACACAGCGUGGCAAAGUGGCUGUGGCUAGACUGCC

Read counts are not given, so values of variants with three or more changes are uncertain.

The data set covers variants of B1. The data set can be described thus: self-cleavage, relative activity (ratio to wild type); higher = more cleavage; in vitro, sequencing; the parent is a self-cleaving ribozyme.
On to G22C C23A C42G, for which the self-cleavage was 0.07.
As to C3G G17U G19U U38G, the self-cleavage is 0.03.
Then G1C A12C G29U A39C A41U, with 0; and C8U A14C G21A G36C, with 0.05; and C23A U34C U38A, with 0.21.
Then A4C G7A C15G G27U G33U, with 0.02; and A12C C31U G44A, with 0.01; and G5C C10A G30U U32C, with 0.04.
Then C13U G19A U28C, with 0.08.
Consider G1U G29U G30U U34G G44C, for which the self-cleavage came out at 0.03.
Then G7A C8A G17U U28A G30C U32C U43C, with 0.08; and A12C C23A G36U C45A, with 0.02.
As to C8U A14C G30U A39G, the self-cleavage was 0.02.
For the variant A16G C23U G44U, the self-cleavage stood at 0.12.
Turning to A6U U9A U20C G36C, the self-cleavage stood at 0.06.
The figure for G27U U28G G36U C37A is 0.01; for U9G G21A U28C U38G C46G it is 0.01.
The figure for G2U G5U A16U C23G C42G C45A is 0.01; for U9A C13A G21U C45G it is 0.13; for C3A A12C C15A A16C it is 0.04.
Then G1A G30U A39U C45A, with 0.28.
On to G5U A14G U20G U38A, for which the self-cleavage was 0.05.
Then G1U G5C A6U G44U, with 0.08; and G2C A4U G29A C42G G44C, with 0.03; and C8A G17U A39C G40U, with 0.06.
Then C10U U20C G33U, with 0.02; and C8A A12U U28G G29U, with 0.13.
Take G7C C18G G21A C31U U32C G35U: the self-cleavage was 0.03.
The figure for A16U C18G U20C A25G C45A is 0; for G17U U28A G33C C46A it is 0.
The figure for A6C C8A A14C G19U G22U A26C is 0.14; for C31U G33C C37G it is 0.09; for G2A A11U G21U C37U it is 0.01.
Then A12C A16U G17C C18U A26U, with 0.04.
For C8G C15G G44A C45U, the self-cleavage is 0.05.
Then G21U A26G C37G, with 0; and C18G G29U G44A, with 0.49.
The figure for C8A G22A C46G is 0.29; for G1U A14U G17A C31G it is 0.01; for C3U A14G G40U U43C it is 0.
Then C23G U34G C45A, with 0.07; and G2U C15G A41C, with 0.05; and A25U G29A G33C G36C, with 0.03.
C18A G19A G29A G33U: the self-cleavage was found to be 0.07.
The figure for G5U C18G G30A C37U is 0.07.
For G21U G33U C46U, the self-cleavage stood at 0.05.
The figure for C10G A26C G33U is 0; for U9A G19U G21U C23U it is 0.04; for C37U U38G G40U it is 0.
Then G5A C13A C15G G36U C37G, with 0.33; and A14U C18G G19A, with 0.13; and C15G G29C C46U, with 2.14.
The figure for A4C A12U A26G is 0.02; for A6U U32G G40U it is 0.22; for G5U C15A G21C G33C it is 0.02.
G5U U34C G44A: the self-cleavage was 0.04.
Then U9C G19C G30C, with 0.01.
On to C3G C13U G17U U28C, for which the self-cleavage came out at 0.12.
Then A4G A26G U32A, with 0.02; and A4C G17U G27U G29C G40C A41U, with 0.03.
As for G1A C10U A12C C18U G36U C46A, the self-cleavage came out at 0.04.
Then C15U G21C A24U G40U U43G, with 0.14; and C3G A4C C23U C42G, with 0.06.
The figure for C8A C15G C23A C31A is 0.04; for C3U A6U C13A A24C G30A U43A it is 0.27; for C10U A14U U20A U32G G35A C46A it is 0.
Then C8G G21A G36A, with 0.54.
Regarding A11U G17U G19A C31U, the self-cleavage is 0.27.
Then U28G U34A G44A, with 0.03; and A14C A16C C18G U38C A41G, with 0.04; and C3G G5U C8G C15A A25G, with 0.02.
Turning to G1C A4C C13A, the self-cleavage is 0.03.
Then A6U C8A A12G G29C C37U, with 0.05; and C3G U20G A24C, with 0.09.
Then G40A G44A C46G, with 0.03; and G5A G7A C8A A16C G17A C23G C31U G33A G40A, with 0.19; and G21U C23G G30U, with 0.11.
Then G1A C15A A24C C45A, with 0.03; and G1U C10G A11U C18U, with 0.01; and C8U A26U G33U G35C, with 0.06.
Consider A16U G17A C23U, for which the self-cleavage was determined as 0.03.
Then C10A G19A G22C C46A, with 0.01; and A4U C8U C42G, with 0.14.
The figure for C15G G22U G35C is 0.03; for U9C G22A C23G G33C it is 0.
As for G7C C13U C15U G17U, the self-cleavage is 0.05.
Then U9G A11G G44A, with 0.05; and A11U G33A C42G, with 0.02.
Then C13U C15U G19C C42U, with 0.03; and G2A C13U G21A C23G G29C G33U C37A C46U, with 0.2; and C13G C15A A24U U28G G36A C37U C46A, with 0.01.
The figure for C10G A24G C42G U43C is 0.01; for A12U U20A U38A A41G C42U it is 0.02; for G33C U38C A39G G40U A41U it is 0.03.
With C13U U38C A41G U43G C46U, the self-cleavage amounted to 0.1.
The figure for U32A U34C A39G U43A C45U is 0.05; for A6U C13A G17C it is 0.43; for G22A A24U A25G U28A it is 0.15.
Then A4G C15A G19A A25C C37G, with 0.02; and G17A U38G G40U, with 0.08; and G5A C37G A39G, with 0.03.
The figure for C3A G5U C8G G22A is 0.03; for C18G A26U G36A it is 0.01.
In the case of G2U C3U C15G, the self-cleavage came to 0.06.
The figure for G21C C37U A39U is 0.02; for G7U U20G C37U C45G it is 0.03; for G1C C8G A16U C42G it is 0.
For the variant C13A G19A G35C G36A G40C, the self-cleavage came out at 0.05.
The figure for C3U G7C C10U C37U G40A is 0.05; for A25U G30C U38A it is 0.88; for C23G C37G C45U it is 0.04.
The figure for U9A A12G A16G U28G is 0.18; for C18U G35C C42A C46G it is 0.
Then A24G G33A U38G, with 0.09; and A11G A25C G33U, with 0.02.
Consider G2U C13A C46G, for which the self-cleavage was 0.04.
For the variant C13G G17C U20C U43A, the self-cleavage was 0.16.
Then C15G U28G G35U, with 0.01; and G5A G7U U34G C37A, with 0.08.
Then G21U G30A C31G, with 0.19; and C23U C31A G44A C46U, with 0.04; and U9C C23U C31A, with 0.02.
The figure for G1A G2A G36U is 0.96; for G5C G7U C46A it is 0.09.
On to G5C A6C C46G, for which the self-cleavage worked out at 0.08.
The figure for G7C C15G U20A G21C A24U G36C is 0.03.
The figure for C15U C18U U20G A41U is 0.04; for G2U A25C U34A it is 0.01.
The figure for G5U C8A C15U A24C is 0.2; for G7C G19A G22C G27C it is 0.3.
Consider C3G G7U G35U, for which the self-cleavage is 0.08.
In the case of C15G C23A A26G, the self-cleavage was 0.08.
In the case of G7U G19U G30A U32A, the self-cleavage stood at 0.17.
Regarding G1A G2U A11U U38C, the self-cleavage was determined as 0.03.
Consider G7A C13U C23A C45G, for which the self-cleavage came to 0.16.
Then G2U G17C U20C A26G G36U, with 0.03; and C3G G5C C15A G19A U32A C37G, with 0.01.
The figure for A6U C8G G21A A24G is 0.36.
Then G5A U9G G17U, with 0.09.
On to A25G G36U U38C, for which the self-cleavage came to 0.02.
Then C8A C31G U32G, with 0.06.
Regarding A16U G21A A39G, the self-cleavage worked out at 0.
Then A6G C10U C15A A41U G44A, with 0.04; and C18G G22U U38A, with 0.25; and G2U C13A C37A, with 0.01.
The figure for G1U G5A A14G is 0.22.
Then C10G G21U A25U C45G, with 0; and G2U A24G G27A G30A C37G A41C U43G, with 0.01; and G1U A16U G33A, with 0.03.
Consider A4C G19A C31A A41C, for which the self-cleavage came to 0.02.
Consider C18A G19A G36U G40A, for which the self-cleavage is 0.03.
Then A39U G40A A41U, with 0.62; and C18A A39G G40U, with 0.03.
The figure for A26C G29U U43A is 0.02; for C10A G27A C42A it is 0; for C18U G21U C37U it is 0.06.
The figure for C13G C23U G36A C37A U38G is 0.01; for C18U G29U U38A it is 0.1.
As to A24C A26C G44C, the self-cleavage is 0.05.
The figure for C15A G19A G29U G35A G36U C37U is 0.03; for G7C C10U A14G A25C C31A C45U it is 0.07.
Turning to C3G G22A C31G, the self-cleavage came out at 0.09.
As for G2C A14U C15G A24U C37G, the self-cleavage came out at 0.01.
The figure for C3A C13A C23A G40A is 0.21; for G17C C31A G44U it is 0.01; for G2U G5A C8U U9G G40C it is 0.03.
For G2C G7A U32G, the self-cleavage amounted to 0.08.
